{
  "source": "PubChem BioAssay AID1346428",
  "about": "(National Center for Advancing Translational Sciences (NCATS), 2018)",
  "note": "Hit rate of the full screen: of about 48,000 compounds, about 1,200 (2.5%) were called active. Not shown: some 2% with an inconclusive outcome.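 Rule for the calls: active = activation of at least 60% and not above a set upper limit (about 1 call in 100 departs from these limits); inconclusive = activation of 40% to 60%, or above that upper limit; inactive = activation under 40%.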 Some of the results follow.",
  "data": [
    {"target": "Probable G-protein coupled receptor 32 (Homo sapiens) (UniProt O75388)", "sequence (O75388 whole entry, looked up, the tested form may be a part)": "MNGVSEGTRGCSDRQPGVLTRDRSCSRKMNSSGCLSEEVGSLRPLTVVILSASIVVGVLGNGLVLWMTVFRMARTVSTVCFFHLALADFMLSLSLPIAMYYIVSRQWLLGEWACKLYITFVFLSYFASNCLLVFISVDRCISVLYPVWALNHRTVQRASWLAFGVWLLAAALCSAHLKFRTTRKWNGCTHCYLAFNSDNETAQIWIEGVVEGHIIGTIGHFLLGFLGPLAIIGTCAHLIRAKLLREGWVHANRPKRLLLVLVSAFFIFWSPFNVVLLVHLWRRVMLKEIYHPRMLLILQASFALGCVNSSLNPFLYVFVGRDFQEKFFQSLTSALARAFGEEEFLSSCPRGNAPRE", "test": "qHTS for Agonists of Human Resolvin D1 Receptor DRV1; note: 0% is about no effect", "conditions": "CHO-K1 GPR32 beta-arrestin PathHunter luminescence, 90 min; at 76.9 µM; active compounds read high; zero percent set by DMSO-only wells", "procedure,_shortened": "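GPR32 activation in stably transfected CHO-K1 cells, detected as beta-arrestin recruitment by enzyme-fragment complementation. Compound exposure: 90 min, 37 °C.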", "values": [
      {"smiles": "Cc1ccc(NC(=O)CCS(=O)(=O)c2ccc(Br)s2)c(Br)c1", "activation": "active: 70.9%"},
      {"smiles": "CCOc1ccc(CCNC(=O)c2oc(=O)c3ccccc3c2-c2ccc(C)cc2)cc1OCC", "activation": "inactive: -4.93%"},
      {"smiles": "Cc1ccc(Nc2c(-c3ccc(C)s3)nc3ccccn23)cc1", "activation": "inactive: 11%"},
      {"smiles": "CCCCCC1Nc2cc(C(F)(F)F)c(S(N)(=O)=O)cc2S(=O)(=O)N1", "note": "(centres undefined)", "activation": "inactive: 6.72%"},
      {"smiles": "COC(=O)c1cccc(NC2=NS(=O)(=O)c3ccccc32)c1", "activation": "inactive: -13.6%"},
      {"smiles": "Cc1cc(Cl)ccc1NC(=O)Cc1ccc(NC(=O)N2CCCCc3ccccc32)cc1", "activation": "inactive: -8.01%"},
      {"smiles": "COc1ccc(C)cc1NC(=O)C1CCN(S(=O)(=O)c2cc(Br)cc3c2N(C(C)=O)CC3)CC1", "activation": "inactive: -12.6%"},
      {"smiles": "CCn1c(SCc2c(F)cccc2Cl)nc(=O)c2c(C(=O)OC)cc(C3CC3)nc21", "activation": "inactive: 1.23%"},
      {"smiles": "O=C(c1ccccc1Br)N(Cc1ccco1)Cc1ccco1", "activation": "inactive: -16.3%"},
      {"smiles": "CCc1ccc(C(=O)c2cn(CC(=O)Nc3cccc(OC)c3)c3cc4c(cc3c2=O)OCO4)cc1", "activation": "inactive: 24.4%"},
      {"smiles": "COc1ccc(C)c2sc(N3CCN(C(=O)c4cccc(F)c4)CC3)nc12", "activation": "inactive: -0.533%"},
      {"smiles": "CCOc1ccccc1NC(=O)N(Cc1ccc(C)o1)C1CCN(C(C)=O)CC1", "activation": "inactive: -12.6%"},
      {"smiles": "Cc1ccc(-c2cc3ncc4c(n3n2)-c2cc(F)ccc2OC4)cc1", "activation": "inactive: -5.23%"},
      {"smiles": "CCOC(=O)CNC(=O)N1CCCN(S(=O)(=O)c2ccc3c(ccn3CC)c2)CC1", "activation": "inactive: -4.82%"},
      {"smiles": "CCc1nn2c(=O)cc(COC(=O)c3ccccc3)nc2s1", "activation": "inactive: -50.3%"},
      {"smiles": "COc1ccc(C)cc1NC(=O)C1CCCN(c2ncnc3onc(C)c23)C1", "note": "(centres undefined)", "activation": "inactive: 6.45%"},
      {"smiles": "CCOc1ccccc1NC(=O)CN(C)S(=O)(=O)c1ccc(C(=O)N2CCOCC2)s1", "activation": "inactive: 5.49%"},
      {"smiles": "O=c1c(=O)n(-c2ccc(F)c(F)c2)ccn1Cc1ccc(F)cc1Cl", "activation": "inactive: -12%"},
      {"smiles": "CCOc1ccc(NC(=O)N2CCN(c3nnc(C)c4c(C)n(-c5ccccc5)nc34)CC2)cc1", "activation": "inactive: -11.3%"},
      {"smiles": "CN(C)/N=N/c1nc[nH]c1C(N)=O", "activation": "inactive: 1.02%"},
      {"smiles": "CCOC(=O)C1=C(CS(=O)(=O)c2ccc(F)c(C)c2)NC(=O)NC1c1ccccc1OC", "note": "(centres undefined)", "activation": "inactive: -1.39%"},
      {"smiles": "CCCc1nnc(NC(=O)c2nc(SCC)ncc2Cl)s1", "activation": "inactive: 3.16%"},
      {"smiles": "CCc1nn(CC(=O)N2CCCCC2)c(=O)c2cc3occc3n12", "activation": "inactive: -16.2%"},
      {"smiles": "CCOC(=O)c1noc2ncn(CC(=O)Nc3cccc(C(F)(F)F)c3)c(=O)c12", "activation": "active: 64.8%"}
    ]}
  ]
}
